Laboratory results published in PubChem BioAssay (NCI).
Values joined by “and” are separate entries in the source; they are usually repeats but may differ in a detail not shown here. Equal values may be shown once.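 Cells were grown in 96-well plates and exposed to each compound for 48 hours at five concentrations; endpoints were interpolated linearly between bracketing concentrations, or set to the highest concentration if not reached. GI50: concentration for 50% inhibition of growth. TGI marks complete inhibition of growth.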

These compounds were tested on NCI-H322M lung (assay: NCI-60 cell line screen, 48 h).
With `COC(=O)N1CC2(CO)C3CC=C(C(=O)Nc4ccccc4Br)C2C1C3Br` (stereo not given) the TGI was > 50 µM. With `O=C(O)c1ccccc1.[Ag]` the TGI was > 58.8 µM. `O=c1c2ccccc2oc2nc3n(c(=O)c12)CCCS3` was tested, and the TGI was > 100 µM. For `Cc1nc2sccn2c1/C=C1/C(=O)Nc2ccccc21`, the GI50 was 30.6 µM and the TGI was > 100 µM. In the case of `OCCOc1ccc(-c2cc(-c3ccccn3)nc(-c3ccccn3)c2)cc1`, the TGI is reported as 32.4 µM. For `Nc1ncnc2c1ncn2C1OC(COP(=O)(O)CP(=O)(O)O)C(O)C1O` (stereo not given), the TGI was > 100 µM. `Cc1nc2c(=S)[nH]ncc2[nH]1` was tested, and the TGI was > 100 µM. `CC1=C([Se]CC(OC(=O)[C@@H](CSSC(C)(C)C)NC(=O)OC(C)(C)C)C(=O)NC(C)(C)C)C(=O)c2ccccc2C1=O` (stereo not given in full) gave a GI50 of 0.299 µM and a TGI of 1.18 µM. Compound `O=C(O)[C@H]1[C@@H](C2CCCCC2)O[C@@H](C2CCCCC2)O[C@H]1C(F)(F)F` has a TGI of 57.2 µM. For `Cc1ccccc1NC(=S)Nc1ccccn1`, the GI50 was > 100 µM and the TGI was > 100 µM. Compound `O=C(/C=C/c1ccc(B(O)O)cc1)/C=C/c1ccc(B(O)O)cc1` has a GI50 of 14.2 µM and a TGI of 28 µM. `CC[P+](C)(Cc1ccccc1)c1ccccc1` (stereo not given) was tested, and the TGI was > 100 µM. `COc1cc(/C=C2/SC(c3ccccc3)N(c3ccc(NC(C)=O)cc3)C2=O)cc(OC)c1OC` (stereo not given) was tested, and the TGI was > 100 µM. Compound `CC1=C(C(=O)NCc2ccccc2)C(c2ccc(C3C(C(=O)NCc4ccccc4)=C(C)NC(C)=C3C(=O)NCc3ccccc3)cc2)C(C(=O)NCc2ccccc2)=C(C)N1` has a TGI of 32 µM. For `COc1cccc([C@H]2CC(=O)c3cc4c(cc3N2)OCO4)c1`, the GI50 was 0.0722 µM and the TGI was > 100 µM. For `COC(=O)Cc1cc(OC)c(OC)cc1Br`, the TGI was > 100 µM. In the case of `C1CC2=C(C1)[Se]C(=C1Sc3nsnc3S1)[Se]2`, the TGI is reported as > 100 µM. In the case of `Cc1nc2ccc(CN(C)c3ccc(C(=O)N[C@@H](CCC(=O)O)C(=O)O)s3)cc2c(=O)[nH]1`, the TGI is reported as > 100 µM. `O=C1C=CC2CCC1C2` (stereo not given) showed a TGI of 82.8 µM. With `Nc1nc2c(=O)c3ccccc3sc2s1` the TGI was > 100 µM. `CN(C)CCNc1ccc(C(=O)NCCCN(C)CCCNC(=O)c2ccc(NCCN(C)C)c3c(=O)c4ccccc4[nH]c23)c2[nH]c3ccccc3c(=O)c12` gave a TGI of 2.22 µM. With `O=C(Cn1c(=O)oc2ccc(C(=O)c3ccc(F)cc3)cc21)c1ccc([N+](=O)[O-])cc1` the TGI was > 100 µM. In the case of `O=C(Nc1ccc(Cl)cc1Cl)c1ccc(NC2=C(Cl)C(=O)N(Cc3ccccc3)C2=O)cc1`, the GI50 is reported as 70.2 µM and the TGI is reported as > 100 µM. For `O=S(=O)(Nc1ncccn1)c1ccc(N=Nc2ccc(O)c3ncccc23)cc1`, the GI50 was 7.59 µM and the TGI was 42.8 µM. `COc1cccc(C2CC(c3cc(OC)c(OC)c(OC)c3)=NN2)c1` (stereo not given) was tested, and the GI50 was 31 µM and the TGI was > 100 µM. With `CCN(CC)CCNC(=O)c1ccccc1NC(=O)C(=O)Nc1ccccc1C(=O)NCCN(CC)CC` the TGI was > 100 µM. Work on `O=C(Nc1cccc2ccccc12)Oc1ccccc1C1CCCCC1` yielded a TGI of 41.8 µM. With `Cc1[nH]c2ncn(/N=C/c3ccccc3O)c(=N)c2c1Cc1ccccc1` the TGI was > 100 µM. With `CC(=O)OCC1OC(Nc2[nH]c(=O)n(C)c(=O)c2-c2csc(N)n2)C(OC(C)=O)C(OC(C)=O)C1OC(C)=O` (stereo not given) the TGI was > 100 µM. With `COC(=O)c1cn(CCCC(=O)O)nn1` the TGI was > 100 µM. `COC(=O)c1c2c(cc3c1CC1(Cc4ccccc4C1=O)C3)CCC2` (stereo not given) was tested, and the TGI was 92 µM. `[O-]/[N+](=C\c1ccccc1)[C@H](COCc1ccccc1)c1ccccc1` was tested, and the TGI was > 100 µM. For `N=C(c1ccccc1)N(c1ccccc1)c1ccccc1`, the TGI was > 100 µM. `CCOC(=O)CCCn1nnc(C(=O)OCC)c1C(=O)OCC` was tested, and the TGI was > 100 µM. With `Cc1ccc(S(=O)(=O)c2scc(-c3ccccc3)c2C)cc1` the TGI was > 100 µM. With `COC(=O)C(=O)C(C(=O)Nc1cccc(C)c1C)C1Sc2ccccc2NC1=O` (stereo not given) the TGI was > 25 µM. In the case of `O=C(O)c1ccccc1Cc1ccco1`, the TGI is reported as > 100 µM. With `COc1cc2c(cc1O)C=NCC2` the TGI was > 100 µM. For `C=C(C)[C@@H]1CC[C@]2(C(=O)O)CC[C@]3(C)[C@H](CC[C@@H]4[C@@]5(C)CC(=O)C(C)(C)[C@@H]5CC[C@]43C)[C@@H]12`, the TGI was > 25 µM. In the case of `C[n+]1c(/C=C\C=C\N2CCCCC2)sc2ccccc21`, the GI50 is reported as 1.03 µM and the TGI is reported as 14.5 µM. With `CC(C)(C)OC(=O)CN1CCNCCNCC1` the TGI was > 100 µM. `Cn1cc(-c2nonc2-c2c[nH]c3ccccc23)c2ccccc21` showed a GI50 of 1.74 µM and a TGI of 20.8 µM. In the case of `COc1cccc2c1OC1c3ccccc3OCC1C2` (stereo not given), the TGI is reported as > 100 µM. In the case of `C(=Nc1ccccc1)C1CCCC[N-]1.C(=Nc1ccccc1)C1CCCC[N-]1.[Cu+2].[O-][Cl+3]([O-])([O-])O` (stereo not given), the GI50 is reported as 13.5 µM and the TGI is reported as 33.9 µM. For `CCc1nn(CN2CCN(C)CC2)c(=S)n1/N=C\c1ccc(-c2ccc([N+](=O)[O-])cc2)o1`, the TGI was > 100 µM. With `CCC1(O)CC(OC2CC(N(C)C)C(OC3CC4OC5CC(=O)C(C)OC5OC4C(C)O3)C(C)O2)c2c(cc3c(c2O)C(=O)c2c(O)ccc(O)c2C3=O)C1C(=O)OC` (stereo not given) the GI50 was 0.00302 µM and 0.00223 µM and 0.00828 µM. Compound `CCOC(=O)c1cccc(NC(=O)CCl)c1` has a TGI of 6.65 µM. In the case of `O=C1c2ccccc2C2CNC1(O)c1ccccc12` (stereo not given), the TGI is reported as > 100 µM. For `N#Cc1cc(C#N)c(Cl)nc1N`, the TGI was > 10 µM. `O=C1N[C@H]2c3c(Cl)sc(Cl)c3/C(=N/O)[C@H]2O1` was tested, and the TGI was > 100 µM. For `COc1ccc2c(c1)C(=O)c1c-2n(CCCN)c(=O)c2ccccc12`, the GI50 was 0.0551 µM and the TGI was 0.353 µM. For `COc1cc(/C(Cl)=C/C=C/C(=O)c2c(C)[n+]([O-])c3ccc(Cl)cc3[n+]2[O-])cc(OC)c1OC`, the GI50 was > 50 µM and the TGI was > 50 µM. `CCOc1ccccc1NC(=O)CCC(=O)OC` was tested, and the TGI was > 100 µM. For `C=C(Cn1c(=O)c2ccccc2c2ccccc21)c1ccc(C(=O)Nc2ccccc2N)cc1`, the GI50 was > 70 µM and the TGI was > 100 µM. For `O=c1[nH]c(=O)n(C2CC(O)C(CO)O2)cc1I` (stereo not given), the TGI was > 100 µM. `CN1CCN(c2ccc(C(=O)Nc3n[nH]c4ccc(Cc5cc(F)cc(F)c5)cc34)c(NC3CCOCC3)c2)CC1` was tested, and the GI50 was 2.73 µM and 1.75 µM and the TGI was > 10 µM and 3.71 µM. With `OCC1OC(c2scc3c(=S)nc[nH]c23)C(O)C1O` (stereo not given) the TGI was > 100 µM. `C1=C\SS/C=C\SS/C=C\SS/C=C\SS/1` was tested, and the TGI was > 100 µM. `Clc1ccc(-c2ccc(-c3nnc(CCc4nnc(-c5ccc(-c6ccc(Cl)cc6)o5)o4)o3)o2)cc1` was tested, and the TGI was > 100 µM. `Cc1ccc(S(=O)(=O)N/N=C/c2oc(-c3cccc([N+](=O)[O-])c3)c(-c3cccc([N+](=O)[O-])c3)c2[N+](=O)[O-])cc1` was tested, and the TGI was > 100 µM. For `O=C(Cc1ccccc1)NCCc1ccc(O)c(O)c1`, the TGI was > 100 µM. For `Nc1nc(Cl)cc(NCC2(O)CC(CO)C2)n1` (stereo not given), the TGI was > 100 µM. For `O=C(c1ccc2ccccc2c1O)N1CCCCC1`, the TGI was > 100 µM. For `COc1ccc(Cn2c(C)nc3c2C(=O)c2ccccc2C3=O)cc1`, the TGI was > 75 µM. `O=C(O)CN(c1ccccc1)S(=O)(=O)c1ccc(NC(=O)c2ccccc2)cc1` was tested, and the TGI was > 100 µM. With `C=C1C(=O)O[C@H]2[C@H]1CC/C(CNC(=O)/C=C/c1ccc(Br)cc1)=C\CC[C@@]1(C)O[C@@H]21` the GI50 was 2.62 µM and the TGI was 9.91 µM. For `COc1ccc(S(=O)(=O)NC(C)C(=O)O)cc1` (stereo not given), the TGI was > 100 µM. With `N#Cc1cccc(N2C(=O)c3c(c(-c4ccccc4)c(-c4ccc(Sc5ccc(-c6c(-c7ccccc7)c7c(c(-c8ccccc8)c6-c6ccccc6)C(=O)N(c6cccc(C#N)c6)C7=O)cc5)cc4)c(-c4ccccc4)c3-c3ccccc3)C2=O)c1` the TGI was > 100 µM. In the case of `O=C(COc1ccc(OCC(=O)N2C(=O)CC(=O)N(c3ccccc3)C2=S)cc1)N1C(=O)CC(=O)N(c2ccccc2)C1=S`, the TGI is reported as > 100 µM. For `CCSc1nnc2c(-c3ccccc3)n[nH]c2n1`, the TGI was > 100 µM. For `CN1CCc2cc3c(cc2C1O)OCO3` (stereo not given), the GI50 was 37 µM and the TGI was > 63.7 µM. With `CCCCCCCCCCCOC(=S)NC(C)C` the TGI was 98.3 µM. In the case of `O=C1c2c(F)c(F)c(F)c(F)c2SC2=NCCN12`, the TGI is reported as 30.7 µM.
